{"source": "paper PMC4336329", "about": "(PLoS ONE, 2015)", "note": "Out of some 310,000 compounds screened, about 2,200 (0.71%) showed an effect of 50% or more. Effects have a minus sign here. The list shows a part of the results."}
{"molecular_target": "human ether-à-go-go-related gene (hERG) potassium channel (human, UniProt Q12809)", "sequence (Q12809 whole entry, looked up)": "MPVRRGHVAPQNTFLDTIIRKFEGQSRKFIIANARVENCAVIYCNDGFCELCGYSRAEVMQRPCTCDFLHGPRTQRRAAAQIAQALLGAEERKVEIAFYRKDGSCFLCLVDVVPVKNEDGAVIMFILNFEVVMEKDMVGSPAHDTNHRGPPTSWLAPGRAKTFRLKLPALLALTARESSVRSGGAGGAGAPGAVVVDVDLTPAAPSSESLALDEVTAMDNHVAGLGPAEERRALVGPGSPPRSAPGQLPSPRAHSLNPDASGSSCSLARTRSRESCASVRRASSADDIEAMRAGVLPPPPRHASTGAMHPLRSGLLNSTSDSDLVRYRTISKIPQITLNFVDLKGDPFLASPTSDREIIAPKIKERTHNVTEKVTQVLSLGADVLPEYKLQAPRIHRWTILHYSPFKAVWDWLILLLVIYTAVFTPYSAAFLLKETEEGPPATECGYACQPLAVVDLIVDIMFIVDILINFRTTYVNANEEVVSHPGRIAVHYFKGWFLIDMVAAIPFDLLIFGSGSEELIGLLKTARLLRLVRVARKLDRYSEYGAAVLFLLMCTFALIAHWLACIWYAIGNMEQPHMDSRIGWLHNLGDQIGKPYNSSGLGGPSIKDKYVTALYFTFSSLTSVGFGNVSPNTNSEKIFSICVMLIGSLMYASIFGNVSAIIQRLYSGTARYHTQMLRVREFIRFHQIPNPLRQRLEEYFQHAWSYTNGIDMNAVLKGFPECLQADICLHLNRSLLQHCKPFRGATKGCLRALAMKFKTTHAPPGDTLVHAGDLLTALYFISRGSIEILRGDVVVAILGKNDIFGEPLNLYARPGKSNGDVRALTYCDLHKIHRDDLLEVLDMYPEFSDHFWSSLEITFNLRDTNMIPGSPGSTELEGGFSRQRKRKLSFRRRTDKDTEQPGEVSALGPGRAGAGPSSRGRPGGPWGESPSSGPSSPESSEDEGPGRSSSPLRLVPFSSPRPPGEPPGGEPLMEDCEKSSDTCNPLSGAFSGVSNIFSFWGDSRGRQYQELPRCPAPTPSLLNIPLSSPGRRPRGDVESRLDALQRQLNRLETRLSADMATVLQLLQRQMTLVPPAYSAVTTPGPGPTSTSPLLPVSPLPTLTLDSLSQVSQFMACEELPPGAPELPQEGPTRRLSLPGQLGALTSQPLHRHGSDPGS", "test": "primary screen, population patch clamp on CHO cells stably expressing hERG", "units": {"hERG current change (%, negative = inhibition) at 1uM": "%"}}
{"compound": "CCC(=O)Oc1ccc(C2N(C(=O)CC)CCN2S(=O)(=O)c2ccc(C)cc2)cc1OC", "note": "(stereo not shown)", "hERG current change (%, negative = inhibition) at 1uM": 11.1}
{"compound": "CCOCCCn1c(NN)nc2ccccc2c1=O", "hERG current change (%, negative = inhibition) at 1uM": 16.5}
{"compound": "CC(=O)c1ccc(N2CCN(S(=O)(=O)c3c(C)[nH]c(C)c3C(=O)N3CCCCC3)CC2)cc1", "hERG current change (%, negative = inhibition) at 1uM": 11.8}
{"compound": "c1ccc(C(c2nnnn2C2CCCC2)N2CCCCCC2)nc1", "note": "(stereo not shown)", "hERG current change (%, negative = inhibition) at 1uM": -7.56}
{"compound": "COc1cc(/C=N/NC(N)=S)cc(Br)c1OCc1ccccc1F", "hERG current change (%, negative = inhibition) at 1uM": -3.88}
{"compound": "CCOC(=O)c1nc2ccccc2c(=O)n1-c1cccc(C)c1", "hERG current change (%, negative = inhibition) at 1uM": 8.13}
{"compound": "COc1ccc(Cl)cc1S(=O)(=O)N(C)CC(=O)NCc1ccc2c(c1)OCO2", "hERG current change (%, negative = inhibition) at 1uM": 4.79}
{"compound": "CN(C)C(=O)c1ccc(=O)n(Cc2ccc(Cl)cc2Cl)c1", "hERG current change (%, negative = inhibition) at 1uM": 5.25}
{"compound": "COc1ccc(-c2nnnn2C(C)C)cc1S(=O)(=O)Nc1ccccc1", "hERG current change (%, negative = inhibition) at 1uM": 9.76}
{"compound": "CC(=O)N1CCc2c(sc(NC(=O)Cc3ccccc3)c2C#N)C1", "hERG current change (%, negative = inhibition) at 1uM": 13.9}
{"compound": "Cc1cc(=O)n2nc(N3CCCC(C(=O)NC4CCC(C)CC4)C3)sc2n1", "note": "(stereo not shown)", "hERG current change (%, negative = inhibition) at 1uM": 14.2}
{"compound": "O=C(COC(=O)COc1ccc(Cl)cc1)NCc1cccs1", "hERG current change (%, negative = inhibition) at 1uM": 5.43}
{"compound": "COc1ccc(Cn2cccc(NC(=O)Nc3cccc(C#N)c3)c2=O)cc1", "hERG current change (%, negative = inhibition) at 1uM": 19.8}
{"compound": "NC(=O)CC(CC(=O)OCc1ccccc1)c1ccccc1", "note": "(stereo not shown)", "hERG current change (%, negative = inhibition) at 1uM": 14.9}
{"compound": "CCCNC(=O)C12CCC(C)(c3nc4cc(C)c(C)cc4nc31)C2(C)C", "note": "(stereo not shown)", "hERG current change (%, negative = inhibition) at 1uM": -4.51}
{"compound": "Cc1ccc(Cn2nnc3c(=O)[nH]c(C4CCCN(C(=O)c5ccco5)C4)nc32)cc1", "note": "(stereo not shown)", "hERG current change (%, negative = inhibition) at 1uM": 14.3}
{"compound": "O=C1CC(c2c[nH]c3ccccc23)C(=O)N1c1ccccc1", "note": "(stereo not shown)", "hERG current change (%, negative = inhibition) at 1uM": -2.79}
{"compound": "CCOC(=O)c1cc(CC)sc1NC(=O)c1ccc(N2C(=O)CCC2=O)cc1", "hERG current change (%, negative = inhibition) at 1uM": 9.54}
{"compound": "CCOc1ccc(S(=O)(=O)N2CCCC(C(=O)NCC3CCCO3)C2)cc1", "note": "(stereo not shown)", "hERG current change (%, negative = inhibition) at 1uM": 2.36}
{"compound": "Cc1ccccc1S(=O)(=O)Oc1cccc2c(O)cccc12", "hERG current change (%, negative = inhibition) at 1uM": 13}
{"compound": "CC(C)CCOc1ccc(Cl)cc1CN1CCOCC1.Cl", "hERG current change (%, negative = inhibition) at 1uM": 13}
{"compound": "COc1ccc(OCC(O)CN2CCCCC2)cc1.Cl", "note": "(stereo not shown)", "hERG current change (%, negative = inhibition) at 1uM": 19.2}
{"compound": "COc1cc(OC)cc(-c2c(-c3cccs3)c3cc(Br)ccc3n2C)c1", "hERG current change (%, negative = inhibition) at 1uM": 20.8}
{"compound": "CCOc1ccc(NC(=O)NC2CCS(=O)(=O)C2)cc1", "note": "(stereo not shown)", "hERG current change (%, negative = inhibition) at 1uM": 4.38}
{"compound": "Cc1ccc(S(=O)(=O)N2CCCCC2c2cccnc2)c(C)c1C", "note": "(stereo not shown)", "hERG current change (%, negative = inhibition) at 1uM": 5.11}
